In all, about 45,000 compounds went through this assay and about 200 (0.44%) were called active. Not shown: some 7% with an inconclusive outcome. Calls follow the shape of the dose curve; as a rule, active = well fitted activation curve with a large enough effect; inconclusive = small, poorly fitted or top-dose-only effect; inactive = no such curve, though single readings can be large or run the other way. The list shows a part of the results.

The test can be described thus: qHTS of TDP-43 Inhibitors: NCGC Sytravon Library Screen. Also: 0% is about no effect; nearly all actives have a fitted effect of over 55% in size. To be noted: yeast TDP-43 toxicity rescue, BacTiter-Glo growth, 24 h; series mostly up to 46.1 µM; growth rescue (activation): at the top concentration. The essentials: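 TDP-43-expressing yeast, pregrown in raffinose, seeded at OD600 0.02 in galactose medium with compound for 24 hr at 30 deg C. Growth read by BacTiter-Glo luminescence, so rescue of toxicity appears as activation.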
In the case of `COc1ccc(-c2nnc(SC)o2)c(OC)c1`, the “growth rescue (activation)” value was inactive: 11.5%.
With `CCOC(=O)c1c(CSc2ccc(C)cc2)oc2ccc(O)cc12`, the “growth rescue (activation)” value was inactive: -89.7%.
The figure for `OCCNCc1cc(Br)ccc1OCc1ccccc1Cl` is inactive: 19.5%; for `COC(=O)C(NS(=O)(=O)c1ccc(N2CCCC2=O)cc1)c1ccccc1` (centres undefined) it is inactive: 12.7%.
For `O=C(/C=C\c1cn(-c2ccccc2)nc1-c1ccccc1)Nc1nccs1` the value was inactive: 6.87%; for `COc1cccc(N(C(=O)CS(=O)CC(=O)Nc2ccc(F)cc2)C(C(=O)NC2CCCCC2)c2cccs2)c1` (centres undefined), inactive: 12.7%; for `CCn1c(COc2cccc(OC)c2)nnc1SCC(=O)NC1CCCC1`, inactive: -10.6%.
For `COc1ccc(OC)c(C(=O)CSc2nnc(-c3cccnc3)n2C)c1` the value was inactive: -1.69%.
As to `O=C(COC(=O)/C=C/c1nc2ccccc2s1)Nc1cccc2ccccc12`, the “growth rescue (activation)” value is inactive: -2.33%.
Regarding `Cc1ccccc1OCC(=O)N(CC(C)C)c1c(N)n(CC(C)C)c(=O)[nH]c1=O`, the “growth rescue (activation)” value was inactive: 1.48%.
As to `O=C(COC(=O)c1cc(S(=O)(=O)N2CCOCC2)ccc1Cl)Nc1ccccc1Cl`, the “growth rescue (activation)” value is inactive: 51%.
As for `CCC(C)c1ccccc1NC(=O)c1[nH]c(C)c(C(C)=O)c1C` (centres undefined), the “growth rescue (activation)” value was inactive: -5.55%.
The figure for `O=C(O)CNC(=S)N(Cc1cccs1)C1CCCCC1` is inactive: 1.3%; for `CNCCCOc1ccc2c(c1)CCC2` it is inactive: 6.68%.
For the compound `COc1cccc(-c2ccc3nccn3c2)c1`, the “growth rescue (activation)” value was inactive: 17.2%.
Take `Cc1ccc(C(=O)N/N=C/C=C/c2ccccc2)cc1`: the “growth rescue (activation)” value was inactive: -17.1%.
With `COc1ccccc1N1CCN(C2CCCN(S(=O)(=O)c3ccccc3)C2)CC1` (centres undefined), the “growth rescue (activation)” value was inactive: -10.6%.
For `COc1ccc(-c2cc(C(=O)Nc3ccc(F)cc3F)no2)cc1` the value was inactive: 12.2%; for `COc1ccc(NC(=O)COC(=O)CNS(=O)(=O)c2ccc(F)c(F)c2F)cc1OC`, inactive: -1.81%.
Turning to `CN1CCCC(OC(=O)c2ccc(Cl)cc2)C1` (centres undefined), the “growth rescue (activation)” value is inactive: -1.52%.
For `O=C(O)CCc1ccc(S(=O)(=O)Nc2ccc(OCc3ccccc3)cc2)cc1` the value was inactive: -3%; for `Cc1ccc(N=Cc2nc(-c3ccc(C)cc3)oc2O)cc1`, inactive: 3.57%.
As for `O=C(CCc1ccc(Oc2cc([N+](=O)[O-])cc([N+](=O)[O-])c2)cc1)Nc1cccc(Cl)c1`, the “growth rescue (activation)” value is inactive: 10.9%.
With `CCc1cccc(CC)c1-n1c(SCC(=O)N2CCCc3ccccc32)nc(O)cc1=O`, the “growth rescue (activation)” value was inactive: 20.7%.
For `c1c2c(cc3sc(N4CCCCC4)nc13)OCO2` the value was inactive: 10.7%.
`COCCNC(=O)Cn1nc(Cc2ccncc2)c2ccccc2c1=O`: the “growth rescue (activation)” value is inactive: -11.2%.
The figure for `CCOC(=O)C1CCN(c2nc3ccccc3nc2C(C#N)C(=O)OC(C)COC)CC1` (centres undefined) is inactive: 6.73%; for `COCCN(CCOC)Cc1c(O)ccc2c1O/C(=C\c1ccco1)C2=O` it is inactive: -20%; for `Cc1cc(OCC(=O)NC(C)c2ccccc2)ccc1[N+](=O)[O-]` (centres undefined) it is inactive: -3.53%.
With `COC(=O)c1ccc(Cn2nnc3sc4c(c3c2=O)CCCC4)cc1`, the “growth rescue (activation)” value is inactive: 16.2%.
With `O=C(CN1C(=O)CCC1=O)c1ccc(-c2ccccc2)cc1`, the “growth rescue (activation)” value is inactive: 13.5%.
For `CCNC(=O)C1(C)CCN(C(=O)c2ccc(N(C)C)cc2)C1` (centres undefined) the value was inactive: 8.08%.
The figure for `CC1=NCCN1S(=O)(=O)c1cccc([N+](=O)[O-])c1` is inactive: -8.28%; for `CCC(=O)c1ccc(OCC(=O)Nc2ccc3c(c2)OCCO3)cc1` it is inactive: 2.34%; for `CCCCCC1CC(=O)N(Cc2ccc(Cl)cc2)C(=O)N1` (centres undefined) it is inactive: 24.9%.
For `O=c1c2oc3ccccc3c2[nH]c(=S)n1-c1ccc(F)cc1` the value was inactive: 21.4%; for `O=C(CCC(=O)N1CCN(S(=O)(=O)c2ccc(Cl)cc2)CC1)Nc1ccc2ccccc2c1`, inactive: 10%; for `O=C(c1cccc(S(=O)(=O)N2CCc3ccccc32)c1)N1CCN(CCO)CC1`, inactive: 8.14%.
As to `Cc1ccc(NC(=O)CN(C)C(=O)CSc2nnc(C)s2)cc1`, the “growth rescue (activation)” value is inactive: -1.48%.
For `Cc1ccccc1S(=O)(=O)NC(=O)C1(C)CCN1C(=O)Cc1ccccc1Cl` (centres undefined) the value was inactive: -0.761%; for `CCc1ccc(NC(=O)c2ccc(F)c(S(=O)(=O)N(CC)c3ccccc3)c2)cc1`, inactive: 21.5%.
For `N#C/C(=C\c1ccncc1)c1nc2ccccc2[nH]1` the value was inactive: 3.15%; for `CC(=O)Nc1ccc(S(=O)(=O)N2CCN(c3nnnn3-c3ccccc3)CC2)cc1`, inactive: 10.5%; for `COCCn1nnnc1C(c1cccc(OC)c1OC)N1CCN(C(=O)c2ccco2)CC1` (centres undefined), inactive: -0.799%.
For `Cc1cc(C)c(C)c(S(=O)(=O)N(C)C2CCN(C)CC2)c1C` the value was inactive: 4.58%.
With `COc1ccc(CCNC(=O)COC(=O)/C=C/c2cc(OC)c(OC)c(OC)c2)cc1OC`, the “growth rescue (activation)” value was inactive: 4.9%.
For the compound `COc1ccc(C(=O)CNc2cccc(F)c2)cc1`, the “growth rescue (activation)” value is inactive: 17.9%.
For `CC1CCCN(C(=O)CSc2ncccn2)C1` (centres undefined) the value was inactive: 10.3%.
The figure for `CCCCn1c(N)c(NCC)c(=O)[nH]c1=O` is inactive: 8.4%; for `COc1ccc(S(=O)(=O)N2CCOCC2)cc1NC(=O)c1ccc(=O)[nH]c1` it is inactive: 9.66%; for `CCc1ccc(-c2nnn(CCC#N)n2)cc1` it is inactive: 22.3%.
For `CC(C)(C)c1ccc(-c2nc(S(=O)(=O)c3ccccc3)c(N3CCOCC3)o2)cc1` the value was inactive: 2.9%.
Turning to `CC1CCCCN1Cc1c(O)ccc2c(=O)c(-c3ccccc3)coc12` (centres undefined), the “growth rescue (activation)” value is inactive: 7.12%.
Take `N#Cc1ccc(OCC(=O)OCC(=O)c2ccc[nH]2)cc1`: the “growth rescue (activation)” value was inactive: 24.2%.
